{"source": "paper PMC12820563", "note": "Some of the results follow. The list includes weakly bound sequences."}
{"target": "T1, MBP-FoxP3dN (UniProt Q99JB6)", "T1 sequence": "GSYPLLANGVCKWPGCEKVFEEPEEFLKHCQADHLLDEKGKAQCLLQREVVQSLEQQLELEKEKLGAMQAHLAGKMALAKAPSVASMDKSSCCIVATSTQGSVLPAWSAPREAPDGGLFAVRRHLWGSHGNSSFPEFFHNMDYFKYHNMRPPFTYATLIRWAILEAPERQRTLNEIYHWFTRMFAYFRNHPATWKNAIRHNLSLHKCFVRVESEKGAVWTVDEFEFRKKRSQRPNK", "experiment": "PD-seq (MBP pull-down with sequencing)", "conditions": "20 mM Tris-HCl pH 7.5, 100 mM NaCl, 1.5 mM MgCl2, 0.4 uM protein, 0.1 uM dsDNA library, 30 min, room temperature, amylose pull-down; high values mean tight binding; double strand, one strand shown"}
{"sequence": "GATGATTGTTCTCCCAGCTGATGAATTGGCTCTCTCGAGTAAACAAATTTTCCTAATCTTTCTGTTCAAGCGCCATCTAC", "binding signal (RPM ratio (pull-down/input))": 0.341}
{"sequence": "GATGATTGTTCTCCCAGCTGATGAATTCTCTGGGTCGAGTAAACAAATTTTCCTAATCTTTCTGTTCAAGCGCCATCTAC", "binding signal (RPM ratio (pull-down/input))": 0.165}
{"sequence": "GATGATTGTTCTCCCAGCTGATGAATTAGTTCTTTCGAGTAAACAAATTTTCCTAATCTTTCTGTTCAAGCGCCATCTAC", "binding signal (RPM ratio (pull-down/input))": 0.409}
{"sequence": "GATGATTGTTCTCCCAGCTGATGAATTGGATCTTTCGAGTAAACAAATTTTCCTAATCTTTCTGTTCAAGCGCCATCTAC", "binding signal (RPM ratio (pull-down/input))": 0.239}
{"sequence": "GATGATTGTTCTCCCAGCTGATGAATTCTGATGCTCGAGTAAACAAATTTTCCTAATCTTTCTGTTCAAGCGCCATCTAC", "binding signal (RPM ratio (pull-down/input))": 1.09}
{"sequence": "GATGATTGTTCTCCCAGCTGATGAATTCGGGGATTCGAGTAAACAAATTTTCCTAATCTTTCTGTTCAAGCGCCATCTAC", "binding signal (RPM ratio (pull-down/input))": 0.395}
{"sequence": "GATGATTGTTCTCCCAGCTGATGAATTACGTTTTTCGAGTAAACAAATTTTCCTAATCTTTCTGTTCAAGCGCCATCTAC", "binding signal (RPM ratio (pull-down/input))": 1.54}
{"sequence": "GATGATTGTTCTCCCAGCTGATGAATTCCGTGTGTCGAGTAAACAAATTTTCCTAATCTTTCTGTTCAAGCGCCATCTAC", "binding signal (RPM ratio (pull-down/input))": 1.62}
{"sequence": "GATGATTGTTCTCCCAGCTGATGAATTCCGTTCCTCGAGTAAACAAATTTTCCTAATCTTTCTGTTCAAGCGCCATCTAC", "binding signal (RPM ratio (pull-down/input))": 0.625}
{"sequence": "GATGATTGTTCTCCCAGCTGATGAATTGGAAGCATCGAGTAAACAAATTTTCCTAATCTTTCTGTTCAAGCGCCATCTAC", "binding signal (RPM ratio (pull-down/input))": 0.654}
{"sequence": "GATGATTGTTCTCCCAGCTGATGAATTGTTCCAATCGAGTAAACAAATTTTCCTAATCTTTCTGTTCAAGCGCCATCTAC", "binding signal (RPM ratio (pull-down/input))": 0.511}
{"sequence": "GATGATTGTTCTCCCAGCTGATGAATTAATTTTTTCGAGTAAACAAATTTTCCTAATCTTTCTGTTCAAGCGCCATCTAC", "binding signal (RPM ratio (pull-down/input))": 1.04}
{"sequence": "GATGATTGTTCTCCCAGCTGATGAATTCCCTTGTTCGAGTAAACAAATTTTCCTAATCTTTCTGTTCAAGCGCCATCTAC", "binding signal (RPM ratio (pull-down/input))": 0.355}
{"sequence": "GATGATTGTTCTCCCAGCTGATGAATTCAATAACTCGAGTAAACAAATTTTCCTAATCTTTCTGTTCAAGCGCCATCTAC", "binding signal (RPM ratio (pull-down/input))": 0.488}
{"sequence": "GATGATTGTTCTCCCAGCTGATGAATTTTCGATTTCGAGTAAACAAATTTTCCTAATCTTTCTGTTCAAGCGCCATCTAC", "binding signal (RPM ratio (pull-down/input))": 0.398}
{"sequence": "GATGATTGTTCTCCCAGCTGATGAATTTGGCGTGTCGAGTAAACAAATTTTCCTAATCTTTCTGTTCAAGCGCCATCTAC", "binding signal (RPM ratio (pull-down/input))": 3.94}
{"sequence": "GATGATTGTTCTCCCAGCTGATGAATTGCTACATTCGAGTAAACAAATTTTCCTAATCTTTCTGTTCAAGCGCCATCTAC", "binding signal (RPM ratio (pull-down/input))": 0.924}
{"sequence": "GATGATTGTTCTCCCAGCTGATGAATTGTCCACTTCGAGTAAACAAATTTTCCTAATCTTTCTGTTCAAGCGCCATCTAC", "binding signal (RPM ratio (pull-down/input))": 0.379}
